According to PubChem BioAssay AID651568 (National Center for Advancing Translational Sciences (NCATS), 2012):
Out of some 1,200 compounds screened, about 55 (5%) were called active. Another 15% or so got no clear call; they are omitted. Calls follow the shape of the dose curve; as a rule, active = well fitted inhibition curve with a large enough effect; inconclusive = small, poorly fitted or top-dose-only effect; inactive = no such curve, though single readings can be large or run the other way. The list shows a part of the results.

Test: qHTS Assay to Find Inhibitors of Chronic Active B-Cell Receptor Signaling: Hit Validation in Renilla Reporter Assay; also: nearly all actives have a fitted effect of over 70% in size
Conditions: TMD8 IkB-Renilla luciferase reporter, NF-kB signaling; series mostly up to 57.5 µM; activity change, negative = inhibition: at the top concentration
Summary of the method: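 Dual-Glo luminescence read-out of constitutively expressed IkB-Photinus/Renilla luciferase reporters in ABC-DLBCL lines, used to retest primary hits; reporter enzymes differ from the click beetle luciferases used in the primary screen.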
% is scaled to controls: 0 for no effect and ±100 for the full control effect; potency is read from the fitted curve at half-maximal effect.

Row | Compound | activity change, negative = inhibition | Potency
1 | COc1cc(C2C(C#N)=C(N)Oc3cc(N(C)C)ccc32)cc2c1OCO2 (centres undefined) | inactive: -10.1% | –
2 | CC(C)(C)C(=O)NC(=S)NNC(=O)c1ccc(-c2ccccc2)cc1 | inactive: -27.5% | –
3 | NNC(=O)c1[nH]c2ccc(Br)cc2c1-c1ccccc1 | inactive: -7.29% | –
4 | COc1cc(OC)c2c(-c3cccc(-c4ccc(OC)c(F)c4)c3)cc(=O)oc2c1 | inactive: -15.1% | –
5 | N#C/C(=C\c1ccc(Cl)cc1)c1nc2ccccc2o1 | inactive: 7.06% | –
6 | COc1ccccc1NS(=O)(=O)c1ccc(-c2cnc(C3CC3)o2)cc1 | inactive: 19.8% | –
7 | CCc1ccc(/C=N/NC(=O)c2cc(C3CC3)nc3ccccc23)s1 | inactive: -10.8% | –
8 | CCOC(=O)c1c(C)c(C(=O)OCC)n(C)c1C | inactive: -16.5% | –
9 | N#CCN1C(=S)N=C(Nc2cccc(Cl)c2)C12CCCCC2 | inactive: 0.0979% | –
10 | COc1ccc(-c2cc(C(=O)NN)[nH]n2)cc1OC | inactive: -1.88% | –
11 | COc1cc2c(cc1O)CC[C@@H]1[C@@H]2CC[C@]2(C)[C@@H](O)CC[C@@H]12 | inactive: -4.12% | –
12 | COc1ccc(C(=O)N/N=C/c2ccccc2OC(=O)c2ccccc2)cc1 | inactive: -12.9% | –
13 | CCCCN1C(=O)N(C)C2C1N(C)C(=O)N2CCCC (centres undefined) | inactive: 1.12% | –
14 | COc1ccc(-c2nn(C)c(=O)c3ccccc23)cc1CNS(C)(=O)=O | inactive: -3.29% | –
15 | CCCC1=Nc2cc(C(=O)NC3CCCCC3)ccc2Sc2ccc(C)cc21 | inactive: -4.04% | –
16 | COc1ccc(C(=O)N(C)Cc2cnn(Cc3ccccc3)c2)cc1S(=O)(=O)N1CCOCC1 | inactive: -0.539% | –
17 | COc1cc2c(cc1OC)C(C)N(C(=O)c1cc(C)on1)CC2 (centres undefined) | inactive: -13.9% | –
18 | Nc1ncnc2c1ncn2[C@@H]1O[C@H](COP(=O)(O)O)[C@@H](O)[C@H]1O | inactive: 7.78% | –
19 | COc1ccc(/C=N/n2c(=S)n(C)c3ccccc32)cc1OC | inactive: -5.63% | –
20 | COc1ccc(C2=Nn3c(nnc3-c3ccccn3)SC2)cc1OC | inactive: -2.2% | –
21 | C/C(=N\NC(=S)NCCc1ccccc1)c1cccc(Br)c1 | inactive: 14.1% | –
22 | COC1=CC(=O)CC(C)C12Oc1c(Cl)c(OC)cc(OC)c1C2=O (centres undefined) | inactive: -2.07% | –
23 | COc1cc(C)nc(NCc2ccccc2)n1 | inactive: 10.7% | –
24 | CC1=Nc2ccccc2/C1=C\c1sc(Nc2ccc(C)cc2)nc1O | inactive: -18.9% | –
25 | Cc1cccc(NC(=O)c2ccc(C(=O)Nc3cccc(C)c3)nc2)c1 | inactive: -7.98% | –
26 | Cc1ccc(NS(=O)(=O)c2cc(-c3n[nH]c(=O)c4ccccc34)ccc2C)cc1 | inactive: -28.3% | –

Row | Compound | activity change, negative = inhibition | Potency
27 | CN(C)c1nc(=Nc2cccc(Cl)c2)ss1 | – | active: 10.7 µM
28 | Cc1cccc(C(=O)Oc2ccc(/C=N/O)cc2)c1 | inactive: 0.412% | –
29 | CN1c2ccccc2Sc2cc(N)ccc21 | inactive: -7.71% | –
30 | COc1ccc(-c2c(C)nn3c(N)c(C#N)cnc23)cc1OC | inactive: 1.53% | –
31 | Cc1cc(Cl)n2c(nc3cc(F)c(F)cc32)c1C#N | – | active: 1.69 µM
32 | O=C(CSc1cccc[n+]1[O-])c1ccc(Cl)cc1 | inactive: 1.38% | –
33 | CCn1c(O)c(N=NC(=S)NCC2CCCO2)c2ccccc21 (centres undefined) | inactive: -24.2% | –
34 | COc1ccc(-c2c(-c3cc(OC)c(OC)c(OC)c3)noc2C)cn1 | inactive: -20.2% | –
35 | C(=N\Nc1nc2ccccc2[nH]1)/C1CCCCC1 | inactive: -13.5% | –
36 | CCC(=O)[C@@]1(C)[C@H](C)C[C@H]2[C@@H]3CCC4=CC(=O)C=C[C@]4(C)[C@H]3[C@@H](O)C[C@@]21C | inactive: 3.4% | –
37 | CC1(C)N=c2ccc([N+](=O)[O-])c(N)c2=[N+]1[O-] | inactive: -20.4% | –
38 | CCCCNC(=S)N=Nc1c(O)[nH]c2ccccc12 | inactive: 16.5% | –
39 | CCOC(=O)C1C(C(=O)OC)=C(c2ccc(OC)cc2)c2ccccc2N1S(=O)(=O)C(F)(F)F (centres undefined) | inactive: -0.898% | –
40 | CC[C@]1(O)CC2CN(CCc3c([nH]c4ccccc34)[C@@](C(=O)OC)(c3cc4c(cc3OC)N(C=O)[C@H]3[C@@](O)(C(=O)OC)[C@H](OC(C)=O)[C@]5(CC)C=CCN6CC[C@]43[C@@H]65)C2)C1 (some centres undefined) | inactive: -23.7% | –
41 | COc1cc(/C=C/c2ccc3cccc(O)c3n2)cc(Cl)c1OC | inactive: -4.98% | –
42 | Nc1ccc(C(=O)Nc2ccccc2N)cc1 | inactive: 87.1% | –
43 | CCCCn1c(=O)c(F)cn(Cc2ccc(OC)c([N+](=O)[O-])c2)c1=O | inactive: 2.27% | –
44 | COc1ccc(COC(=O)C2=C(C)NC(=O)NC2c2cc(Br)c(O)c(OC)c2)cc1 (centres undefined) | inactive: -19.4% | –
45 | COc1cc(/C=C2\N=C(c3ccccc3)NNC2=O)cc(OC)c1OC | inactive: 24.1% | –
46 | O=C(CCCN1C(=O)/C(=C/c2ccccc2OC(F)F)SC1=S)Nc1cccnc1 | – | active: 30.1 µM
47 | CC[C@]12c3[nH]c4cc(CCC(=O)N(C)C)ccc4c3CCN1C(=O)[C@@H](CC(=O)NC(C)(C)C)C[C@@H]2C(=O)N1CCN(C(=O)c2ccco2)CC1 | inactive: -0.0894% | –
48 | CC1=CC(C)(C)N(S(=O)(=O)c2ccc(C)cc2)c2ccc(C)cc21 | inactive: -19% | –
49 | Cc1cc(C)cc(NS(=O)(=O)c2ccc(-c3cnc(C4CC4)o3)cc2)c1 | inactive: 25.8% | –
50 | S=C(NCCN1CCOCC1)N/N=C/c1cccs1 | inactive: 1.18% | –
51 | COC(=O)Nc1nc(-c2ccccc2)c(C(=O)c2ccc(Cl)cc2)s1 | inactive: 9.55% | –
52 | COC(=O)c1ccc(CNC(=O)Cn2cnc3c(NCc4ccccc4)ncnc32)cc1 | inactive: 5.07% | –

Row | Compound | activity change, negative = inhibition | Potency
53 | CCOc1ccc(S(=O)(=O)NCc2ccccn2)cc1NC(=O)c1ccccc1F | inactive: 5.11% | –
54 | COc1ccc(-c2c3c(=O)n(C)c(=O)n(C)c3cn2N2CCOCC2)cc1 | inactive: -20.9% | –
55 | Cc1cc(C)c2cc(C=O)c(Cl)nc2c1 | inactive: 3.92% | –
56 | CCn1c2ccccc2c2cc(NC(=O)c3cc(OC)cc(OC)c3)ccc21 | inactive: 2.33% | –
57 | c1ccc(C2=Nn3c(nnc3-c3n[nH]c4c3CCC4)SC2)cc1 | inactive: -11.8% | –
58 | COc1cc2c(cc1OC)-c1cc(Nc3ccccc3C)nc(=O)n1CC2 | inactive: -2.82% | –
59 | COc1ccc(C(=O)c2ccc(OC)c(N)c2)cc1N | inactive: 2.59% | –
60 | CCOC(=O)C(C)N1C(=O)S/C(=C/c2cc(C)n(-c3ccccn3)c2C)C1=O (centres undefined) | inactive: -1.07% | –
61 | Cc1ccccc1Nc1c(N)c(=O)oc2ccccc12 | inactive: 5.23% | –
62 | Cc1ccccc1N1CCN(C2=NC(=O)/C(=C\c3cccs3)S2)CC1 | inactive: -10.4% | –
63 | CC1=NN(C(N)=S)C(=O)C1N=Nc1ccc(F)cc1 (centres undefined) | inactive: -18.2% | –
64 | COc1ccc(C2=NN(C(C)=O)C(c3cccs3)C2)cc1OC (centres undefined) | inactive: 3.79% | –
65 | CCC1=Nc2cc(C(=O)NCc3ccccc3Cl)ccc2Sc2ccc(C)cc21 | inactive: 8.29% | –
66 | COc1cc(SSc2cc(OC)cc([N+](=O)[O-])c2N)c(N)c([N+](=O)[O-])c1 | inactive: 0.788% | –
67 | CCNC(=S)NNc1ccccc1 | inactive: 2.7% | –
68 | CCOc1ccccc1CNS(=O)(=O)c1ccc(-c2cnc(C3CC3)o2)cc1 | inactive: -4.15% | –
69 | Cc1ccc(/C=N/NC(=O)c2cc(-c3cccnc3)nc3ccccc23)cc1 | inactive: -4.67% | –
70 | Cc1c(/C=N\NC(=O)C2COc3ccccc3O2)c2ccccc2n1C (centres undefined) | inactive: -13.8% | –
71 | CC1C(=O)N2CCCc3cc(NC(=O)c4ccccc4Br)cc1c32 (centres undefined) | inactive: 9.75% | –
72 | Oc1ccc(CNc2ccccc2F)c2cccnc12 | inactive: 9.53% | –
73 | COC(=O)c1ccccc1NC(=O)Cn1c(-c2nonc2N)nc2ccccc21 | inactive: -21.5% | –
74 | COc1cc2c(cc1C1NC(=S)NC(C)=C1C(N)=O)CCCC2 (centres undefined) | inactive: 2.66% | –
75 | NC(=S)NN=C1c2ccccc2-c2ccccc21 | inactive: -21.7% | –
76 | COc1cccc(N2CCN(C(=O)c3ccc(CS(=O)c4ccc(C)cc4)o3)CC2)c1 (centres undefined) | inactive: -5.33% | –
77 | OC[C@H]1O[C@@H](n2cnc3c(NC4CCCC4)nc(Cl)nc32)[C@H](O)[C@@H]1O | inactive: -17.7% | –
78 | COc1cc2c(cc1OC)-c1cc(Nc3ccc(C)cc3)nc(=O)n1CC2 | inactive: -18.8% | –

Row | Compound | activity change, negative = inhibition | Potency
79 | CCSc1nc(-c2ccccc2)nc(C(Cl)Cl)n1 | – | active: 2.69 µM
80 | CCCn1nnc(NC(=S)NC(=O)Cc2ccccc2)n1 | inactive: 6.62% | –
81 | COc1cc(C2=NOC(C(=O)NCc3ccco3)C2)cc(OC)c1OC (centres undefined) | inactive: -1.17% | –
82 | COc1cc(-c2noc(C)c2/C=C/c2ccc(OC(C)=O)cc2)cc(OC)c1OC | inactive: -22.1% | –
83 | C/C(=N\NC(=O)COc1ccc(C(C)(C)C)cc1)c1ccc(N2CCOCC2)cc1 | inactive: -17.7% | –
84 | O=C(NC(=S)NC1CCSC1=O)c1ccccc1 (centres undefined) | inactive: 3.18% | –
85 | COc1cc(OC)c2c(-c3cccc(-c4sccc4C(C)=O)c3)cc(=O)oc2c1 | inactive: -25.5% | –
86 | COc1cc2c(c(OC)c1OC)-c1ccc(N(C)CC(OC)OC)c(=O)cc1[C@@H](NC(C)=O)CC2 | inactive: -11.3% | –
87 | NS(=O)(=O)c1cc(C(=O)OCC(=O)N2CCc3ccccc3C2)ccc1Cl | inactive: 7.65% | –
88 | CC1CC(C)CN(S(=O)(=O)c2ccc(NC(=O)c3ccc(=O)[nH]c3)cc2)C1 (centres undefined) | inactive: 14.9% | –
89 | Cc1cc(C)c(S(=O)(=O)Nc2ccc3c4c(cccc24)CC3)c(C)c1 | inactive: 12.3% | –
90 | CCOC(=O)C1(C)C(C(=O)OC)=C(c2ccc(OC)cc2)c2ccccc2N1C(=O)OC (centres undefined) | inactive: 0.713% | –
91 | CC(=NNC(=O)c1cc(C)nc2ccccc12)c1ccc(N2CCOCC2)cc1 | inactive: -10.2% | –
92 | O=Cc1ccc(O)c2ncccc12 | inactive: -26.5% | –
93 | COc1ccc(/C=N/NC(=O)c2ccc3c(c2)NC(=O)C(C)(C)O3)cc1OC | inactive: -5.68% | –
94 | COc1ccc(S(=O)(=O)N2CCCCC2)cc1NS(=O)(=O)c1cc(Cl)ccc1Cl | inactive: 32.2% | –
95 | COc1cc(/C=N/NC(=O)C2C3CCCCC32C)cc(Br)c1O (centres undefined) | inactive: -19.2% | –
96 | COc1ccc(NC(=O)/C(C#N)=C\c2cc(C)n(-c3ccc4c(c3)OCO4)c2C)cc1 | inactive: -9.92% | –
97 | O=C(c1ccc(Cl)cc1)c1cc([N+](=O)[O-])ccc1N1CCOCC1 | inactive: -5.48% | –
98 | CC(/C=N/NC(=O)c1cc(-c2ccccc2)nc2ccccc12)=C\c1ccco1 | inactive: -1.8% | –
99 | C=CCn1c(SCc2c(C)noc2C)nc2ccccc2c1=O | inactive: -0.584% | –
100 | CCCC(=O)Nc1ccc(C(=O)N/N=C/c2cccnc2)cc1 | inactive: -9.34% | –
101 | Cc1ccnc(NC(=O)c2cccc(S(=O)(=O)Nc3ccc(C)cc3C)c2)c1 | inactive: 26.3% | –
102 | CCNC(=S)N/N=C(\C)c1ccc(Cl)s1 | inactive: 4.96% | –
103 | Cc1nnc2ccc(-c3ccc(NS(=O)(=O)c4ccccc4[N+](=O)[O-])cc3)nn12 | inactive: 8.84% | –
104 | COc1ccc2cc(C3c4cc(OC)c(OC)cc4CCN3C(=O)c3ccco3)c(=O)[nH]c2c1 (centres undefined) | inactive: 0.254% | –
